# According to the supplement of paper PMC3334620:
# Over roughly 33,000 sequences, “E-score (-0.5 to 0.5)” has its median near -0.012; the highest 2% begin near 0.27. Some of the results follow.
# Biological target: T1, Vhr1 (UniProt P40522)
# T1 sequence: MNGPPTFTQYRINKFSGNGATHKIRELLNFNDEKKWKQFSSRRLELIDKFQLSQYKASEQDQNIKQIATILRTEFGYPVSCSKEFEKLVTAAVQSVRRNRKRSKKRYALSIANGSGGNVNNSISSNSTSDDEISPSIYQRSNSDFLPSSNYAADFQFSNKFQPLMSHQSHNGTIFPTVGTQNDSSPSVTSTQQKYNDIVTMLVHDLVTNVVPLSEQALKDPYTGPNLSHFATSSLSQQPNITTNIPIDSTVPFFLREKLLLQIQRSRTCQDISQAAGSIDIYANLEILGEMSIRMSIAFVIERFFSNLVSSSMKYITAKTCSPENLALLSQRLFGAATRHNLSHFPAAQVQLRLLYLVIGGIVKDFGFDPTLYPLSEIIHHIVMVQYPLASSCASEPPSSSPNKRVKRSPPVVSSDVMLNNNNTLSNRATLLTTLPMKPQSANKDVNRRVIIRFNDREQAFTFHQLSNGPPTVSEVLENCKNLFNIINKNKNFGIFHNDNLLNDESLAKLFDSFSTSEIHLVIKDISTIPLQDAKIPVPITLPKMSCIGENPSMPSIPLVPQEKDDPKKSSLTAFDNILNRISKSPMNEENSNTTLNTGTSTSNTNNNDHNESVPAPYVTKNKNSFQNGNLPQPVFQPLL
# Experiment: PBM E-score (8-mer binding enrichment) (E-score (-0.5 to 0.5)); higher = stronger / more preferred TF binding; most listed sequences are background and not binding sites
# Conditions: protein concentration: 200 nM; construct: GST-full length
# In short: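 Yeast transcription factors, full-length or as DNA-binding domains, were expressed with a GST tag using PURExpress in vitro transcription/translation. At about 100-200 nM they were applied to universal all-10-mer Agilent arrays, double-stranded by primer extension on fresh or once-stripped slides. Fluorescent anti-GST detected bound protein, and masliner normalised the scans. E-scores for ungapped eight-base words, pooled with reverse complements, came from the Universal PBM Analysis Suite.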
row,Sequence,PBM E-score
1,GCTTATTA,0.00965
2,ACCGTGAG,0.0635
3,CTAGATCA,-0.0375
4,TTAAGGAA,-0.195
5,ACACGAAG,0.175
6,AGGAAAGG,-0.33
7,CGTTCAAC,-0.0189
8,CTTGCTGC,-0.113
9,GATGCAAC,-0.174
10,ATACGAGG,-0.0491
11,AGCCGCGA,0.211
12,GGACGATA,-0.176
13,CGTCGCGC,0.0614
14,ACTCGCCG,0.306
15,CATCCCGC,0.0523
16,CAGACTCA,0.27
17,GTACACCA,0.104
18,GGACAGAA,-0.0334
19,GATTCCGA,0.287
20,AAACTAGT,0.049
21,ATGAGCGC,0.0491
22,AAAGATTA,-0.109
23,CGCTCTTC,-0.0255
24,GCAGGACC,-0.204
25,CCACTATA,0.0571

row,Sequence,PBM E-score
1,GTTTCCGA,-0.0865
2,CCCATTCG,0.00579
3,GCCGGAGC,-0.0858
4,GAAATGAC,0.184
5,AATTTTGC,-0.269
6,AAGCCCTG,-0.0175
7,AATATGCG,0.0679
8,CCTATTAG,-0.167
9,CCCCATAA,-0.199
10,CAGCATCG,-0.0269
11,AGGGATTC,-0.111
12,CGCTGGCA,-0.0134
13,CCATATGC,0.146
14,GATCTATA,-0.028
15,ACCTGTCC,-0.255
16,CTGGCCAC,0.0647
17,CAAACCCG,-0.0955
18,AGTTAGCC,-0.0741
19,GGAACTGA,0.0413
20,ACGGATAG,0.0733
21,ACGGCCGA,0.0328
22,CAGCGTCG,0.111
23,ATGTAAGG,-0.0958
24,CCAGAGCC,-0.0954
25,CGCTTCTC,-0.0685

row,Sequence,PBM E-score
1,GACTAATA,0.222
2,AGAATGCC,-0.23
3,TAGAAATA,-0.22
4,AGTGAACA,0.0449
5,TGGTCGAA,-0.256
6,GATTTGTA,0.0813
7,GTTGTTGA,0.127
8,CGCTTTAG,-0.115
9,ACCGACGT,0.0119
10,ATCTACTG,0.0599
11,GCACGTTA,-0.141
12,CATGTGGG,0.151
13,AACGGTTC,-0.149
14,CACAGTGA,0.175
15,ACCTGTTC,-0.00327
16,AAAGACAA,-0.0425
17,CCGGCAAA,-0.0456
18,AGCACAAT,0.069
19,ACACCATC,0.2
20,GTAATAAA,0.0464
21,GTCAGTTA,-0.0868
22,CATGTTTA,0.0112
23,CCCAGGCG,-0.00747
24,CTCTTCTC,-0.158
25,CATTCACA,0.00907

row,Sequence,PBM E-score
1,ACTTGCTC,-0.057
2,ACCATAAT,0.214
3,CGTCGTAA,-0.116
4,CACAGATC,0.0986
5,AATGGGTC,0.075
6,CCGATCCC,-0.203
7,GCGCCATA,-0.0832
8,AGTTTGCA,0.0611
9,AAATGCAG,0.0175
10,TCTTGCCA,-0.0826
11,TCAGGGAA,-0.135
12,CAACTTCC,0.014
13,ACCTAGTG,0.146
14,AGAGACTA,-0.054
15,CACAGCTC,0.0991
16,AAGATTGG,-0.035
17,GGCACGAC,-0.014
18,AAATTCTG,-0.0457
19,CAGTGACG,0.0292
20,GCTGTTAA,-0.115
21,ACGCGTTG,-0.0506
22,CCGTCCTA,-0.135
23,ACAGCTAT,-0.149
24,GTACCAAC,0.0401
25,ATCGAAAC,0.0206

row,Sequence,PBM E-score
1,GCCTAAAA,-0.168
2,CCTGCGCA,-0.151
3,CAGGCCCA,-0.208
4,ACGCTGAC,0.128
5,CTTACGCC,-0.019
6,ATCGGGTA,-0.0136
7,TACATCGA,0.142
8,CCAGTTCG,-0.0499
9,AGGAATCC,0.119
10,TATGAAGA,-0.0555
11,GCATTTTA,-0.141
12,AAGCAATT,-0.103
13,AGATGTGA,0.233
14,CATCGACC,0.0173
15,GAATGATA,0.213
16,AAAACTCA,-0.00882
17,ACGGCACT,-0.0791
18,CGTGTGAG,0.23
19,AACTAAAC,0.0617
20,CGCCGGAG,-0.0128
21,ATCTAAAT,0.0357
22,CTTCGGTC,0.0799
23,CTTTCGCA,-0.136
24,CACGAGGC,0.00213
25,CGGCAAAA,-0.198

row,Sequence,PBM E-score
1,CGGTCGTA,-0.0601
2,GCAAAAGC,-0.251
3,GGGGTCCA,-0.229
4,ACGAGGCA,-0.0723
5,CAAGGTAG,-0.0447
6,GCCATCGA,0.0619
7,CAGGAGGC,-0.153
8,ACTCCTTG,0.149
9,AAATACGA,-0.0441
10,ACGCTACC,-0.271
11,ATTTTATC,-0.13
12,AGAGGCCC,-0.181
13,AGCGATTC,0.168
14,GCCAACCC,-0.144
15,GAGGTTAA,-0.247
16,ATCGTGAC,0.113
17,CAATTACC,-0.132
18,ATTCTCGA,0.17
19,GCTTAGTA,-0.171
20,CCATAGTA,0.225
21,AGTGAACG,-0.103
22,CTGCTACC,-0.0378
23,ATGTTAAA,-0.133
24,CATTGCCC,0.0302
25,ACGGATGG,0.102

row,Sequence,PBM E-score
1,ACGAGGGC,-0.0718
2,GCCTCATA,-0.11
3,AGTAATCC,0.0334
4,AGGGCGAG,-0.0205
5,GAAGAGTC,0.194
6,CCCTGATA,-0.179
7,CGGTAAAG,-0.151
8,CTGGACCC,-0.213
9,ACGATCTA,-0.0658
10,ACTCAAGC,0.0286
11,GATCGCAC,0.0502
12,ACTGGTCG,0.0753
13,GACAGCAA,-0.0406
14,AATGAGCT,-0.098
15,ATCGCAAC,0.072
16,AATATGCA,-0.0315
17,ATCAGACC,0.0881
18,GATGTAGC,-0.0956
19,GGAAGTCC,-0.212
20,CTGATTCA,0.341
21,CAGTTGGA,-0.0496
22,GACTATCA,0.0818
